In PubChem BioAssay AID652106 (National Center for Advancing Translational Sciences (NCATS), 2013):
In all, about 370,000 compounds went through this assay and about 500 (0.14%) were called active. The shares of active, inactive and inconclusive entries below differ from those in the screen. Calls follow the shape of the dose curve; as a rule, active = well fitted activation curve with a large enough effect; inconclusive = small, poorly fitted or top-dose-only effect; inactive = no such curve, though single readings can be large or run the other way. Potencies of inconclusive entries are left out as doubtful fits.

Experiment: qHTS of alpha-syn Inhibitors; also: nearly all actives have a fitted effect of over 65% in size; as to growth rescue (activation): % of control where 0% means no effect
Conditions: Yeast expressing alpha-synuclein, BacTiter-Glo, 24 h; Potency: growth rescue unless noted; growth rescue (activation): at 46.1 µM (top of the series) unless noted
How it was run: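 Readout is rescue of growth in alpha-synuclein-expressing yeast, so inhibitors of toxicity appear as activators. Growth after 24 hr at 30 deg C in galactose medium is quantified by luminescence.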
Potency is read from the fitted curve at half-maximal effect; tags tell the direction and shape of the fitted curve.

Structure (SMILES) | Potency | growth rescue (activation)
O=S(=O)(c1cccc2nsnc12)N1CCN(c2ncccn2)CC1 | inconclusive [activator, single point] | –
Cc1ccc(C(O)c2ncc(-c3ccc(Cl)cc3)[nH]2)cc1F (stereo not drawn) | inconclusive [activator, single point] | –
CC(C)(C)OC(=O)N1CCN(C(=O)c2nc[nH]c2C(=O)N2CCN(C(=O)OC(C)(C)C)CC2)CC1 | inconclusive [activator, single point] | –
O=C(O)c1ccc(NCc2cccc(Br)c2)cc1 | inconclusive [activator, full curve, poor fit] | –
CC(C)(C)NC(=O)C1Cc2ccccc2CN1S(=O)(=O)c1ccc(F)cc1 (stereo not drawn) | inconclusive [activator, single point] | –
CCCCOn1c(C)c(C(=O)OCC)c2c3no[n+]([O-])c3ccc21 | – | inactive: 3.19%
O=C(Nc1ccc(Cl)c(C(F)(F)F)c1)C1Cc2c(-c3ccccc3)ccnc2O1 (stereo not drawn) | inconclusive [activator, single point] | –
O=C(NCc1ccncc1)c1ccc(Cn2cc(C(F)(F)F)ccc2=O)cc1 | inconclusive [activator, single point] | –
COc1cc2c(cc1OC)C(C(=O)NCCN1CCOCC1)C1c3ccccc3CCN1C2=O (stereo not drawn) | – | inactive: -2.52%
O=C(CC(c1ccccc1)C1CCCCC1=O)c1ccco1 (stereo not drawn) | inconclusive [activator, single point] | –
Cc1ccc(C(=O)NCc2ccc3c(c2)CCO3)cc1C | inconclusive [activator, partial curve] | –
CC1CCN(C(=O)CSCC(=O)Nc2nc(-c3cccs3)cs2)CC1 | – | inactive: -15.5%
CCOC(=O)c1ccccc1OCc1cc(C2Nc3ccccc3C(=O)N2c2cccc3ccccc23)ccc1OC (stereo not drawn) | inconclusive [activator, single point] | –
Cc1nnc(NC(=O)c2ccc(S(=O)(=O)N3CCCCCC3)cc2)o1 | inconclusive [activator, single point] | –
N#Cc1nc(N2CCCC2)nc(N(c2ccccc2)c2ccccc2)n1 | – | inactive: -0.496%
O=c1[nH]nc(CNc2ccc(C(F)(F)F)cc2)c2ccccc12 | – | inactive: 4.71%
COc1cc2nc(N3CCOCC3)nc(NC(C)C)c2cc1OC | inconclusive [activator, single point] | –
Cc1ccc(S(=O)(=O)N2C(=O)CCC2C(=O)O/N=C(\N)c2cccc([N+](=O)[O-])c2)cc1 (stereo not drawn) | inconclusive [activator, single point] | –
CSc1cnc2c(=O)n(C)c(=O)[nH]c2n1 | – | inactive: -0.827%
COc1ccc(C(=O)NC(c2ccccc2Cl)c2cc(Cl)c3cccnc3c2O)cc1 (stereo not drawn) | active: 15.8 µM | –
Cc1cccc(NC(=O)c2oc3c(c2C)C(=O)CC(C)(C)C3)n1 | inconclusive [activator, single point] | –
C=C[C@@]1(C)CC(=O)[C@]2(O)[C@@]3(C)[C@@H](O)CCC(C)(C)[C@@H]3[C@H](OC(C)=O)[C@H](O)[C@@]2(C)O1 | inconclusive [activator, single point] | –
C/C(=N\NC(=O)Cc1ccc(Cl)cc1)c1ccccn1 | inconclusive [activator, single point] | –

Structure (SMILES) | Potency | growth rescue (activation)
CCCCOC(=O)CSc1ncnc2sc3c(c12)CCC(C)C3 (stereo not drawn) | inconclusive [activator, single point] | –
Clc1ccc(CSc2nnc(CNc3cccc(Cl)c3)o2)cc1 | active: 8.91 µM | –
Cc1ccc(NC(=O)CSCC(=O)N(C)Cc2c(F)cccc2Cl)cc1 | inconclusive [activator, single point] | –
C=C1C2=C(C(=O)N1OC)[C@@H](O)[C@@](C)(O)[C@@H](CCCCC)O2 | – | inactive: -0.765%
C/C(CC(=O)NC12CC3CC(CC(C3)C1)C2)=N\NC(=O)c1cnccn1 | inconclusive [activator, single point] | –
COC(=O)c1ccc(NC(=O)CCn2cnnn2)c(C)c1 | – | inactive: -1.19%
COc1ccc(-n2nc(C(=O)NCC(=O)N3CC(C)CC(C)C3)c3ccccc3c2=O)cc1 (stereo not drawn) | – | inactive: 3.6%
C=CCn1c(SCC(N)=O)nnc1-c1cccc(Br)c1 | inconclusive [activator, single point] | –
NC1CCc2ccccc21 (stereo not drawn) | – | inactive: -2.21%
Cn1nnc(NC(=S)NC(=O)c2cccc3ccccc23)n1 | – | inactive: -9.25%
Cc1cc(C)nc(N(C#N)Cc2ccccc2C)n1 | inconclusive [activator, single point] | –
CC(C)CCNC(=O)CCCOc1ccccc1 | – | inactive: -1.87%
COc1ccc(-c2ccc(C(=O)N3CCOCC3)c3occc23)c(C)c1 | inconclusive [activator, single point] | –
Cc1c(Cl)cccc1NC(=S)N(Cc1cccnc1)Cc1ccccc1Cl | inconclusive [activator, single point] | –
Cc1c(C)n(Cc2ccccc2)c2ncnc(Cl)c12 | inconclusive [activator, single point] | –
OC(COc1ccc2ccccc2c1Cl)CN1CCOCC1 (stereo not drawn) | – | inactive: 0.811%
COc1ccccc1N1CC(C)(C)C(=O)N(C(=O)c2c(F)cccc2Cl)C1=S | inconclusive [activator, single point] | –
O=C(Nc1ccccc1)c1cc(C2CCCCN2S(=O)(=O)c2cccs2)on1 (stereo not drawn) | inconclusive [activator, single point] | –
C=CCOc1ccc2c(OC)c3ccoc3nc2c1OC | – | inactive: -3.16%
COc1ccc(CCNC(=O)C(=O)NCC2OCCN2S(=O)(=O)c2ccc(F)cc2)cc1OC (stereo not drawn) | inconclusive [activator, single point] | –
Cc1c(NC(=O)C(C)OC(=O)c2c3c(nc4ccccc24)CCC3)c(=O)n(-c2ccccc2)n1C (stereo not drawn) | – | inactive: -4.12%
COc1ccc2cc(-c3nnc(Nc4ccccc4)s3)c(=O)oc2c1 | – | inactive: 2.08%
Cc1cccc(C)c1NC(=S)/C(=C(\[O-])c1cccs1)[n+]1ccccc1 | inconclusive [activator, single point] | –

Structure (SMILES) | Potency | growth rescue (activation)
CCNc1nc(Cl)nc(NC2CCCCC2)n1 | – | inactive: -7.86%
C=CCOc1ccc(C(=O)/C=C2/C(=O)Nc3ccccc32)cc1 | inconclusive [activator, partial curve] | –
O=C(COC(=O)c1ccc(O)cc1)Nc1cc(S(=O)(=O)N2CCCCCC2)ccc1Cl | inconclusive [activator, single point] | –
COC(=O)c1ccc(-n2c(C)cc(C(=O)CSc3cccc[n+]3[O-])c2C)cc1 | inconclusive [activator, single point] | –
COc1ccc(Cl)cc1CSc1ncn[nH]1 | inconclusive [activator, single point] | –
COc1cc(-c2nc3ccc4ccccc4c3c3c2CCC3)cc(OC)c1O | inconclusive [activator, single point] | –
Cc1noc(C)c1-c1ccc(C(=O)Nc2ccc(C(C)C)cc2)c2occc12 | inconclusive [activator, single point] | –
Cc1ccccc1OCCC(=O)N1CCN(S(=O)(=O)c2ccccc2F)CC1 | inconclusive [activator, single point] | –
O=C1NC[C@H](Cc2ccc(O)cc2)N(C[C@@H]2CCCN2C[C@H](Cc2ccccc2)N2C[C@H](Cc3ccc(O)cc3)N(CCc3ccccc3)C(=O)C2=O)C1=O | inconclusive [activator, single point] | –
O=C(Nc1nnc(C2CC2)o1)c1ccc(S(=O)(=O)N2CCCCC2)cc1 | inconclusive [activator, single point] | –
CCC1CCCCN1S(=O)(=O)c1ccc(C(=O)Nc2sc3c(c2C(N)=O)CCC3)cc1 (stereo not drawn) | inconclusive [activator, single point] | –
O=C1OCC(CO)(CO)N=C1NNc1ccc(Cl)c(Cl)c1 | inconclusive [activator, partial curve] | –
CC1CCC(C(C)C)C(OC(=O)C2=C3c4ccccc4S(=O)(=O)N3CC2)C1 (stereo not drawn) | inconclusive [activator, single point] | –
NC(=O)NN=C1C2CCCC1C(c1ccccc1)NC2c1ccccc1 (stereo not drawn) | inconclusive [activator, single point] | –
Oc1ccc(Br)cc1CNc1cccc2cccnc12 | – | inactive: -83.1%
CN1C(=O)C(C)(C)c2cc(S(=O)(=O)N3CCN(c4cccc(Cl)c4)CC3)ccc21 | inconclusive [activator, single point] | –
CC[C@H](C)[C@H]1O[C@]2(CC[C@@H]1C)C[C@@H]1C[C@@H](CC=C(C)[C@@H](O[C@H]3C[C@H](OC)[C@@H](O[C@H]4C[C@H](OC)[C@@H](O)[C@H](C)O4)[C@H](C)O3)[C@@H](C)C=CC=C3CO[C@@H]4[C@H](O)C(C)=C[C@@H](C(=O)O1)[C@]34O)O2 | – | inactive: 24.9%
Cc1ccc(NC(=O)c2cccs2)cc1 | – | inactive: -27.5%
O=S(=O)(NCCCCNS(=O)(=O)c1cccc2cccnc12)c1cccc2cccnc12 | inconclusive [activator, single point] | –
O=C(O)C1CCN(Cc2ccccn2)CC1 | – | inactive: -0.561%
C=CCn1c(SCCCc2ccccc2)nc2c1c(=O)[nH]c(=O)n2C | inconclusive [activator, single point] | –
O=C(c1ccc(Cl)c(Cl)c1)N1CCC(=O)N([C@H](COCc2cccc(C(F)(F)F)c2)Cc2ccccc2)CC1 | inconclusive [activator, single point] | –
